These results are taken from article PMC9911399, “Two distinct binding modes provide the RNA-binding protein RbFox with extraordinary sequence specificity”.

Numbering of substitutions follows the chain as printed; changes in the protein carry UniProt numbers. Some of the results follow.

First the molecules themselves.
T1: RBFOX1 RRM RbFoxmut (Fox-RRM*) (Homo sapiens, UniProt Q9NWB1 109-208, R118D;E147R;N151S;E152T)
T1 sequence: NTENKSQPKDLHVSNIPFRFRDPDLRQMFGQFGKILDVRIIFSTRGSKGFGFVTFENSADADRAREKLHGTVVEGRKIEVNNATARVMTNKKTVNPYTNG

B1: AGGACUU (DNA:RNA)
RNA: GGGAGACCGGAAUUCAGAUUGUCCAGGACUUUUAAAUCCCGUCGUAGCCACCA
DNA 1: CAATCTGAATTCCGGTCTCCC
DNA 2: TGGTGGCTACGACGGGATT
B2: CAAAUGA (DNA:RNA)
RNA: B1 RNA with A25C, G26A, G27A, C29U, U30G, U31A
DNA 1: CAATCTGAATTCCGGTCTCCC
DNA 2: TGGTGGCTACGACGGGATT
B3: CGUGUCG (DNA:RNA)
RNA: B1 RNA with A25C, G27U, A28G, C29U, U30C, U31G
DNA 1: CAATCTGAATTCCGGTCTCCC
DNA 2: TGGTGGCTACGACGGGATT
B4: CUAGGCA (DNA:RNA)
RNA: GGGAGACCGGAAUUCAGAUUGUCCCUAGGCAUUAAAUCCCGUCGUAGCCACCA
DNA 1: CAATCTGAATTCCGGTCTCCC
DNA 2: TGGTGGCTACGACGGGATT
B5: AUGCAAC (DNA:RNA)
RNA: B1 RNA with G26U, A28C, C29A, U30A, U31C
DNA 1: CAATCTGAATTCCGGTCTCCC
DNA 2: TGGTGGCTACGACGGGATT
B6: AACACAG (DNA:RNA)
RNA: B1 RNA with G26A, G27C, U30A, U31G
DNA 1: CAATCTGAATTCCGGTCTCCC
DNA 2: TGGTGGCTACGACGGGATT
B7: CGAUCCA (DNA:RNA)
RNA: B4 RNA with U26G, G28U, G29C
DNA 1: CAATCTGAATTCCGGTCTCCC
DNA 2: TGGTGGCTACGACGGGATT
B8: AGCCAGG (DNA:RNA)
RNA: B1 RNA with G27C, A28C, C29A, U30G, U31G
DNA 1: CAATCTGAATTCCGGTCTCCC
DNA 2: TGGTGGCTACGACGGGATT
B9: GAAUUCC (DNA:RNA)
RNA: B4 RNA with C25G, U26A, G28U, G29U, A31C
DNA 1: CAATCTGAATTCCGGTCTCCC
DNA 2: TGGTGGCTACGACGGGATT
B10: CUGCGGA (DNA:RNA)
RNA: B4 RNA with A27G, G28C, C30G
DNA 1: CAATCTGAATTCCGGTCTCCC
DNA 2: TGGTGGCTACGACGGGATT
B11: CCUCUAU (DNA:RNA)
RNA: B1 RNA with A25C, G26C, G27U, A28C, C29U, U30A
DNA 1: CAATCTGAATTCCGGTCTCCC
DNA 2: TGGTGGCTACGACGGGATT
B12: AGUGCGG (DNA:RNA)
RNA: B1 RNA with G27U, A28G, U30G, U31G
DNA 1: CAATCTGAATTCCGGTCTCCC
DNA 2: TGGTGGCTACGACGGGATT
B13: ACCGGUC (DNA:RNA)
RNA: B1 RNA with G26C, G27C, A28G, C29G, U31C
DNA 1: CAATCTGAATTCCGGTCTCCC
DNA 2: TGGTGGCTACGACGGGATT
B14: UGUAGUC (DNA:RNA)
RNA: B1 RNA with A25U, G27U, C29G, U31C
DNA 1: CAATCTGAATTCCGGTCTCCC
DNA 2: TGGTGGCTACGACGGGATT
B15: ACCAAUG (DNA:RNA)
RNA: B1 RNA with G26C, G27C, C29A, U31G
DNA 1: CAATCTGAATTCCGGTCTCCC
DNA 2: TGGTGGCTACGACGGGATT
B16: CACGACC (DNA:RNA)
RNA: B4 RNA with U26A, A27C, G29A, A31C
DNA 1: CAATCTGAATTCCGGTCTCCC
DNA 2: TGGTGGCTACGACGGGATT
B17: UUAAUAG (DNA:RNA)
RNA: B4 RNA with C25U, G28A, G29U, C30A, A31G
DNA 1: CAATCTGAATTCCGGTCTCCC
DNA 2: TGGTGGCTACGACGGGATT
B18: ACCUUAU (DNA:RNA)
RNA: B1 RNA with G26C, G27C, A28U, C29U, U30A
DNA 1: CAATCTGAATTCCGGTCTCCC
DNA 2: TGGTGGCTACGACGGGATT
B19: CCGGCGU (DNA:RNA)
RNA: B1 RNA with A25C, G26C, A28G, U30G
DNA 1: CAATCTGAATTCCGGTCTCCC
DNA 2: TGGTGGCTACGACGGGATT
B20: CGUACCU (DNA:RNA)
RNA: B1 RNA with A25C, G27U, U30C
DNA 1: CAATCTGAATTCCGGTCTCCC
DNA 2: TGGTGGCTACGACGGGATT
B21: AUAAGCG (DNA:RNA)
RNA: B4 RNA with C25A, G28A, A31G
DNA 1: CAATCTGAATTCCGGTCTCCC
DNA 2: TGGTGGCTACGACGGGATT
B22: UAGUCCA (DNA:RNA)
RNA: B1 RNA with A25U, G26A, A28U, U30C, U31A
DNA 1: CAATCTGAATTCCGGTCTCCC
DNA 2: TGGTGGCTACGACGGGATT
B23: UGUACCG (DNA:RNA)
RNA: B1 RNA with A25U, G27U, U30C, U31G
DNA 1: CAATCTGAATTCCGGTCTCCC
DNA 2: TGGTGGCTACGACGGGATT
B24: GAUACUC (DNA:RNA)
RNA: B1 RNA with A25G, G26A, G27U, U31C
DNA 1: CAATCTGAATTCCGGTCTCCC
DNA 2: TGGTGGCTACGACGGGATT
B25: CCGGAGC (DNA:RNA)
RNA: B4 RNA with U26C, A27G, G29A, C30G, A31C
DNA 1: CAATCTGAATTCCGGTCTCCC
DNA 2: TGGTGGCTACGACGGGATT
B26: GGGUCAG (DNA:RNA)
RNA: B1 RNA with A25G, A28U, U30A, U31G
DNA 1: CAATCTGAATTCCGGTCTCCC
DNA 2: TGGTGGCTACGACGGGATT
B27: CAGCCAA (DNA:RNA)
RNA: B1 RNA with A25C, G26A, A28C, U30A, U31A
DNA 1: CAATCTGAATTCCGGTCTCCC
DNA 2: TGGTGGCTACGACGGGATT
B28: AAUCAUC (DNA:RNA)
RNA: B1 RNA with G26A, G27U, A28C, C29A, U31C
DNA 1: CAATCTGAATTCCGGTCTCCC
DNA 2: TGGTGGCTACGACGGGATT
B29: ACUCCCA (DNA:RNA)
RNA: B1 RNA with G26C, G27U, A28C, U30C, U31A
DNA 1: CAATCTGAATTCCGGTCTCCC
DNA 2: TGGTGGCTACGACGGGATT
B30: ACUAGGC (DNA:RNA)
RNA: B1 RNA with G26C, G27U, C29G, U30G, U31C
DNA 1: CAATCTGAATTCCGGTCTCCC
DNA 2: TGGTGGCTACGACGGGATT
B31: CUCCUAG (DNA:RNA)
RNA: B4 RNA with A27C, G28C, G29U, C30A, A31G
DNA 1: CAATCTGAATTCCGGTCTCCC
DNA 2: TGGTGGCTACGACGGGATT

The assay addresses T1, RBFOX1 RRM RbFoxmut (Fox-RRM*). As to the kind of experiment: EMSA; HiTS-Eq, 1 nM pool, 10 min; buffer printed only for the single-RNA assays: 10 mM Tris pH 7.5, 150 mM NaCl, 3.4 mM EDTA, 0.001% NP-40, 30 C. Particulars: tags: His6 N-terminal (pET28a); label: 5' 32P. An outline of the steps: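 Purified RbFox RRM, wild type or mutant, was incubated for 10 min in 50 µL with 1 nM of a 5′-radiolabelled RNA pool carrying 7 randomized nucleotides, whose flanks were annealed to DNA oligonucleotides, over a series of increasing protein concentrations. Unbound RNA was resolved on 8% native PAGE, cut out, reverse-transcribed, barcoded by PCR and sequenced on an Illumina HiSeq 2500. Relative association constants were derived from changes in read counts for each RNA species versus the control reaction and normalised to the cognate motif.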
A general note: In EMSA bound probe runs differently from free probe, usually more slowly.
B1: the binding signal was 0.063 KA relative to UGCAUGU.
Turning to B2, the binding signal was 0.0896 KA relative to UGCAUGU.
As to B3, the binding signal is 0.126 KA relative to UGCAUGU.
Regarding B4, the binding signal was 0.114 KA relative to UGCAUGU.
Regarding B5, the binding signal is 0.0614 KA relative to UGCAUGU.
The result for B6 reads 0.0745 KA relative to UGCAUGU.
With B7, the binding signal is 0.117 KA relative to UGCAUGU.
Turning to B8, the binding signal is 0.108 KA relative to UGCAUGU.
Turning to B9, the binding signal was 0.0427 KA relative to UGCAUGU.
B10: the binding signal is 0.126 KA relative to UGCAUGU.
With B11 the figure was 0.114 KA relative to UGCAUGU; with B12, 0.107 KA relative to UGCAUGU.
As for B13, the binding signal is 0.103 KA relative to UGCAUGU.
On to B14, for which the binding signal is 0.178 KA relative to UGCAUGU.
For B15, the binding signal is 0.109 KA relative to UGCAUGU.
Regarding B16, the binding signal is 0.0654 KA relative to UGCAUGU.
Take B17: the binding signal is 0.0804 KA relative to UGCAUGU.
In the case of B18, the binding signal is 0.134 KA relative to UGCAUGU.
With B19 the figure was 0.125 KA relative to UGCAUGU.
Take B20: the binding signal was 0.099 KA relative to UGCAUGU.
As for B21, the binding signal was 0.126 KA relative to UGCAUGU.
For the molecule B22, the binding signal was 0.107 KA relative to UGCAUGU.
In the case of B23, the binding signal is 0.148 KA relative to UGCAUGU.
B24: the binding signal is 0.0549 KA relative to UGCAUGU.
On to B25, for which the binding signal was 0.11 KA relative to UGCAUGU.
Regarding B26, the binding signal was 0.132 KA relative to UGCAUGU.
Turning to B27, the binding signal was 0.0742 KA relative to UGCAUGU.
For the molecule B28, the binding signal was 0.0672 KA relative to UGCAUGU.
Regarding B29, the binding signal was 0.0566 KA relative to UGCAUGU.
B30: the binding signal is 0.119 KA relative to UGCAUGU.
For B31, the binding signal was 0.0819 KA relative to UGCAUGU.
